From the supplement of paper PMC8728848
The list shows a part of the results.

Legend:
Assay in all cases: glycan array binding signal (z-score within array); higher = stronger binding
Conditions in all cases: glycan notation: IUPAC condensed, linker removed
[1] = molecular target: Neu5Ac(a2-3)Gal(b1-3)[Fuc(a1-4)]GlcNAc
Outline: (§1)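 The binding signal is a Z-score computed within each array and averaged over linkers. Arrays of the same protein sequence at different concentrations or buffers were also averaged together. Data originate from 3228 arrays in the Consortium for Functional Glycomics database, kept only where the protein sequence was available.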

[2] = molecular target: Neu5Ac(a2-3)Gal(b1-3)[Fuc(a1-4)]GlcNAc(b1-3)Gal(b1-4)[Fuc(a1-3)]GlcNAc
Outline: as §1

[3] = molecular target: Neu5Ac(a2-3)Gal(b1-3)[Neu5Ac(a2-3)Gal(b1-4)]GlcNAc
Outline: as §1

[4] = molecular target: Neu5Ac(a2-3)Gal(b1-3)[Neu5Ac(a2-6)]GalNAc
Outline: as §1

Neu5Ac(a2-3)Gal(b1-4)Glc = molecular target: Neu5Ac(a2-3)Gal(b1-4)Glc
Outline: as §1

[5] = molecular target: Neu5Ac(a2-3)Gal(b1-4)GlcNAc
Outline: as §1

[6] = molecular target: Neu5Ac(a2-3)Gal(b1-4)GlcNAc(b1-2)Man(a1-3)[GlcNAc(b1-2)Man(b1-4)GlcNAc(b1-2)Man(a1-6)]Man(b1-4)GlcNAc(b1-4)GlcNAc
Outline: as §1

[7] = molecular target: Neu5Ac(a2-3)Gal(b1-4)GlcNAc(b1-2)Man(a1-3)[Neu5Ac(a2-6)Gal(b1-4)GlcNAc(b1-2)Man(a1-6)]Man(b1-4)GlcNAc(b1-4)GlcNAc
Outline: as §1

[8] = molecular target: Neu5Ac(a2-3)Gal(b1-4)GlcNAc(b1-3)Gal(b1-3)GlcNAc
Outline: as §1

[9] = molecular target: Neu5Ac(a2-3)Gal(b1-4)GlcNAc(b1-3)Gal(b1-4)GlcNAc
Outline: as §1

[10] = molecular target: Neu5Ac(a2-3)Gal(b1-4)GlcNAc(b1-3)Gal(b1-4)GlcNAc(b1-3)Gal(b1-4)GlcNAc
Outline: as §1

[11] = molecular target: Neu5Ac(a2-3)Gal(b1-4)GlcNAc(b1-3)Gal(b1-4)[Fuc(a1-3)]GlcNAc
Outline: as §1

[12] = molecular target: Neu5Ac(a2-3)Gal(b1-4)GlcNAc(b1-6)[Gal(b1-3)]GalNAc
Outline: as §1

[13] = molecular target: Neu5Ac(a2-3)Gal(b1-4)GlcNAc(b1-6)[Neu5Ac(a2-3)Gal(b1-3)]GalNAc
Outline: as §1

[14] = molecular target: Neu5Ac(a2-3)Gal(b1-4)GlcNAc6S
Outline: as §1

[15] = molecular target: Neu5Ac(a2-3)Gal(b1-4)[Fuc(a1-3)]GlcNAc
Outline: as §1

[16] = molecular target: Neu5Ac(a2-3)Gal(b1-4)[Fuc(a1-3)]GlcNAc(b1-3)Gal
Outline: as §1

[17] = molecular target: Neu5Ac(a2-3)Gal(b1-4)[Fuc(a1-3)]GlcNAc(b1-3)Gal(b1-4)GlcNAc
Outline: as §1

[18] = molecular target: Neu5Ac(a2-3)Gal(b1-4)[Fuc(a1-3)]GlcNAc(b1-3)Gal(b1-4)[Fuc(a1-3)]GlcNAc(b1-3)Gal(b1-4)[Fuc(a1-3)]GlcNAc
Outline: as §1

[19] = molecular target: Neu5Ac(a2-3)Gal(b1-4)[Fuc(a1-3)]GlcNAc(b1-6)[Gal(b1-3)]GalNAc
Outline: as §1

[20] = molecular target: Neu5Ac(a2-3)Gal(b1-4)[Fuc(a1-3)]GlcNAc6S
Outline: as §1

[21] = molecular target: Neu5Ac(a2-3)Gal6S(b1-4)GlcNAc
Outline: as §1

[22] = molecular target: Neu5Ac(a2-3)Gal6S(b1-4)[Fuc(a1-3)]GlcNAc
Outline: as §1

Neu5Ac(a2-3)GalNAc = molecular target: Neu5Ac(a2-3)GalNAc
Outline: as §1

[23] = molecular target: Neu5Ac(a2-3)GalNAc(b1-4)GlcNAc
Outline: as §1

[24] = molecular target: Neu5Ac(a2-3)[GalNAc(b1-4)]Gal(b1-4)Glc
Outline: as §1

[25] = molecular target: Neu5Ac(a2-3)[GalNAc(b1-4)]Gal(b1-4)GlcNAc
Outline: as §1

[26] = molecular target: Neu5Ac(a2-3)[Neu5Ac(a2-6)]GalNAc
Outline: as §1

Neu5Ac(a2-6)Gal = molecular target: Neu5Ac(a2-6)Gal
Outline: as §1

Neu5Ac(a2-6)Gal(b1-4)Glc = molecular target: Neu5Ac(a2-6)Gal(b1-4)Glc
Outline: as §1

[27] = molecular target: Neu5Ac(a2-6)Gal(b1-4)GlcNAc
Outline: as §1

[28] = molecular target: Neu5Ac(a2-6)Gal(b1-4)GlcNAc(b1-2)Man(a1-3)[Gal(b1-4)GlcNAc(b1-2)Man(a1-6)]Man(b1-4)GlcNAc(b1-4)GlcNAc
Outline: as §1

[29] = molecular target: Neu5Ac(a2-6)Gal(b1-4)GlcNAc(b1-2)Man(a1-3)[GlcNAc(b1-2)Man(a1-6)]Man(b1-4)GlcNAc(b1-4)GlcNAc
Outline: as §1

[30] = molecular target: Neu5Ac(a2-6)Gal(b1-4)GlcNAc(b1-2)Man(a1-3)[GlcNAc(b1-2)Man(b1-4)GlcNAc(b1-2)Man(a1-6)]Man(b1-4)GlcNAc(b1-4)GlcNAc
Outline: as §1

[31] = molecular target: Neu5Ac(a2-6)Gal(b1-4)GlcNAc(b1-2)Man(a1-3)[Neu5Ac(a2-6)Gal(b1-4)GlcNAc(b1-2)Man(a1-6)]Man(b1-4)GlcNAc(b1-4)GlcNAc
Outline: as §1

[32] = molecular target: Neu5Ac(a2-6)Gal(b1-4)GlcNAc(b1-2)Man(a1-6)[Gal(b1-4)GlcNAc(b1-2)Man(a1-3)]Man(b1-4)GlcNAc(b1-4)GlcNAc
Outline: as §1

[33] = molecular target: Neu5Ac(a2-6)Gal(b1-4)GlcNAc(b1-2)Man(a1-6)[GlcNAc(b1-2)Man(a1-3)]Man(b1-4)GlcNAc(b1-4)GlcNAc
Outline: as §1

[34] = molecular target: Neu5Ac(a2-6)Gal(b1-4)GlcNAc(b1-3)Gal(b1-4)GlcNAc
Outline: as §1

[35] = molecular target: Neu5Ac(a2-6)Gal(b1-4)GlcNAc(b1-3)Gal(b1-4)[Fuc(a1-3)]GlcNAc(b1-3)Gal(b1-4)[Fuc(a1-3)]GlcNAc
Outline: as §1

[36] = molecular target: Neu5Ac(a2-6)Gal(b1-4)GlcNAc6S
Outline: as §1

Neu5Ac(a2-6)GalNAc = molecular target: Neu5Ac(a2-6)GalNAc
Outline: as §1

[37] = molecular target: Neu5Ac(a2-6)GalNAc(b1-4)GlcNAc
Outline: as §1

Neu5Ac(a2-8)Neu5Ac = molecular target: Neu5Ac(a2-8)Neu5Ac
Outline: as §1

[38] = molecular target: Neu5Ac(a2-8)Neu5Ac(a2-3)Gal(b1-4)Glc
Outline: as §1

[39] = molecular target: Neu5Ac(a2-8)Neu5Ac(a2-3)[GalNAc(b1-4)]Gal(b1-4)Glc
Outline: as §1

[40] = molecular target: Neu5Ac(a2-8)Neu5Ac(a2-8)Neu5Ac
Outline: as §1

[41] = molecular target: Neu5Ac(a2-8)Neu5Ac(a2-8)Neu5Ac(a2-3)Gal(b1-4)Glc
Outline: as §1

[42] = molecular target: Neu5Ac(a2-8)Neu5Ac(a2-8)Neu5Ac(a2-3)[GalNAc(b1-4)]Gal(b1-4)Glc
Outline: as §1

[43] = molecular target: Neu5Ac(a2-8)Neu5Ac(a2-8)Neu5Ac(a2-8)Neu5Ac(a2-3)[GalNAc(b1-4)]Gal(b1-4)Glc
Outline: as §1

[44] = molecular target: Neu5Ac(b2-6)Gal(b1-4)GlcNAc
Outline: as §1

Neu5Ac(b2-6)GalNAc = molecular target: Neu5Ac(b2-6)GalNAc
Outline: as §1

[45] = molecular target: Neu5Ac9Ac(a2-6)Gal(b1-4)GlcNAc
Outline: as §1

[46] = molecular target: Neu5Gc(a2-3)Gal(b1-3)GlcNAc
Outline: as §1

[47] = molecular target: Neu5Gc(a2-3)Gal(b1-3)[Fuc(a1-4)]GlcNAc
Outline: as §1

Neu5Gc(a2-3)Gal(b1-4)Glc = molecular target: Neu5Gc(a2-3)Gal(b1-4)Glc
Outline: as §1

[48] = molecular target: Neu5Gc(a2-3)Gal(b1-4)GlcNAc
Outline: as §1

[49] = molecular target: Neu5Gc(a2-3)Gal(b1-4)[Fuc(a1-3)]GlcNAc
Outline: as §1

[50] = molecular target: Neu5Gc(a2-6)Gal(b1-4)GlcNAc
Outline: as §1

Neu5Gc(a2-6)GalNAc = molecular target: Neu5Gc(a2-6)GalNAc
Outline: as §1

[51] = molecular target: Neu5Gc(b2-6)Gal(b1-4)GlcNAc
Outline: as §1

B1: MCI4 (Toxoplasma gondii), Q9XZH7 (protein)
chain: MRASLPVHLVVCTQLSAVWFGVAKAHGGHRLEPHVPGFLQGFTDITPAGDDVSANVTSSEPAKLDLSCVHSDNKGSRAPTIGEPVPDVSLEQCAAQCKAVDGCTHFTYNDDSKMCHVKEGKPDLYDLTGGKTASRSCDRSCFEQHVSYEGAPDVMTAMVTSQSADCQAACAADPSCEIFTYNEHDQKCTFKGRGFSAFKERGVLGVTSGPKQFCDEGGKLTQEEMEDQISGCIQLSDVGSMTADLEEPMEADSVGACMERCRCDGRCTHFTFNDNTRMCYLKGDKMQLYSSPGDRTGPKSCDSSCFSNGVSYVDDPATDVETVFEISHPIYCQVICAANPLCTVFQWYASEAKCVVKRKGFYKHRKTGVTGVTVGPREFCDFGGSIRDREEADAVGSDDGLNAEATMANSPDFHDEVECVHTGNIGSKAQTIGEVKRASSLSECRARCQAEKECSHYTYNVKSGLCYPKRGKPQFYKYLGDMTGSRTCDTSCLRRGVDYSQGPEVGKPWYSTLPTDCQVACDAEDACLVFTWDSATSRCYLIGSGFSAHRRNDVDGVVSGPYTFCDNGENLQVLEAKDTE
glycan array binding signal (z-score) [1]: -0.215
glycan array binding signal (z-score) [2]: -0.206
glycan array binding signal (z-score) [3]: -0.213
glycan array binding signal (z-score) [4]: -0.216
glycan array binding signal (z-score) (Neu5Ac(a2-3)Gal(b1-4)Glc): -0.205
glycan array binding signal (z-score) [5]: -0.205
glycan array binding signal (z-score) [6]: -0.168
glycan array binding signal (z-score) [7]: -0.198
glycan array binding signal (z-score) [8]: -0.204
glycan array binding signal (z-score) [9]: -0.195
glycan array binding signal (z-score) [10]: -0.224
glycan array binding signal (z-score) [11]: -0.217
glycan array binding signal (z-score) [12]: -0.231
glycan array binding signal (z-score) [13]: -0.208
glycan array binding signal (z-score) [14]: -0.19
glycan array binding signal (z-score) [15]: -0.212
glycan array binding signal (z-score) [16]: -0.218
glycan array binding signal (z-score) [17]: -0.196
glycan array binding signal (z-score) [18]: -0.19
glycan array binding signal (z-score) [19]: -0.166
glycan array binding signal (z-score) [20]: -0.205
glycan array binding signal (z-score) [21]: -0.214
glycan array binding signal (z-score) [22]: -0.21
glycan array binding signal (z-score) (Neu5Ac(a2-3)GalNAc): -0.222
glycan array binding signal (z-score) [23]: -0.222
glycan array binding signal (z-score) [24]: -0.2
glycan array binding signal (z-score) [25]: -0.214
glycan array binding signal (z-score) [26]: -0.222
glycan array binding signal (z-score) (Neu5Ac(a2-6)Gal): -0.219
glycan array binding signal (z-score) (Neu5Ac(a2-6)Gal(b1-4)Glc): -0.217
glycan array binding signal (z-score) [27]: -0.209
glycan array binding signal (z-score) [28]: -0.203
glycan array binding signal (z-score) [29]: -0.207
glycan array binding signal (z-score) [30]: -0.211
glycan array binding signal (z-score) [31]: -0.213
glycan array binding signal (z-score) [32]: -0.176
glycan array binding signal (z-score) [33]: -0.207
glycan array binding signal (z-score) [34]: -0.211
glycan array binding signal (z-score) [35]: -0.229
glycan array binding signal (z-score) [36]: -0.214
glycan array binding signal (z-score) (Neu5Ac(a2-6)GalNAc): -0.214
glycan array binding signal (z-score) [37]: -0.229
glycan array binding signal (z-score) (Neu5Ac(a2-8)Neu5Ac): -0.194
glycan array binding signal (z-score) [38]: -0.209
glycan array binding signal (z-score) [39]: -0.209
glycan array binding signal (z-score) [40]: -0.217
glycan array binding signal (z-score) [41]: -0.208
glycan array binding signal (z-score) [42]: -0.21
glycan array binding signal (z-score) [43]: -0.226
glycan array binding signal (z-score) [44]: -0.207
glycan array binding signal (z-score) (Neu5Ac(b2-6)GalNAc): -0.226
glycan array binding signal (z-score) [45]: -0.189
glycan array binding signal (z-score) [46]: -0.219
glycan array binding signal (z-score) [47]: -0.204
glycan array binding signal (z-score) (Neu5Gc(a2-3)Gal(b1-4)Glc): -0.214
glycan array binding signal (z-score) [48]: -0.209
glycan array binding signal (z-score) [49]: -0.214
glycan array binding signal (z-score) [50]: -0.204
glycan array binding signal (z-score) (Neu5Gc(a2-6)GalNAc): -0.165
glycan array binding signal (z-score) [51]: -0.203
